Consider 42 sequences from paper PMC7819943, “Rice protein-binding microarrays: a tool to detect cis-acting elements near promoter regions in rice”.

The other results are listed elsewhere or left out.

In this assay the target is T1, OsWOX13 (Oryza sativa, UniProt Q5QMM3 1-267).
T1 sequence: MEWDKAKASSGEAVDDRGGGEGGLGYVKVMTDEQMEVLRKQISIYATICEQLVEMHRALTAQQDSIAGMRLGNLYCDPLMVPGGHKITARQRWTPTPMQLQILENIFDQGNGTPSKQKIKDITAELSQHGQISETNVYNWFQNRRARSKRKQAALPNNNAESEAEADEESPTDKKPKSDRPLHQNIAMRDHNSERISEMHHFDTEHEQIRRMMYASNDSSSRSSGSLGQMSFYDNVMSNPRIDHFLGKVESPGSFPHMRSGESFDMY
Put plainly: protein-binding microarray (RPBM); PBS, 2% BSA, 51.3 ng/ul salmon testes DNA, 50 uM zinc acetate, 200 nM TF, 25 C, 1 h; high values mean tight binding. The conditions noted are these: protein: recombinant; tags: N-terminal polyhistidine and DsRed monomer fusion (pET32a); label: CyDye5-dUTP incorporated in the synthesized complementary strand; 3' TTTTT single-stranded linker to array surface; dsDNA, one strand shown. The essentials:
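Per-feature fluorescence intensity (arbitrary units), read on an Axon 4000B scanner, is the binding signal. Transcription factors carrying an N-terminal polyhistidine tag and DsRed fusion were expressed in E. coli BL21-CodonPlus and purified on Ni–NTA. A custom Agilent array, made double-stranded by primer extension with Cy5-dUTP and blocked with 2% BSA, was incubated with 200 nM protein in PBS, 2% BSA, salmon testes DNA and 50 µM zinc acetate at 25 °C for 1 h and then washed.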
Take “GTCGGGTCCTTTGAATGATTACAAATGGTATCAGAGCGCGCGGAGTCACCTAGTGCAG”: the binding signal is 3200 fluorescence intensity (a.u.). In the case of “TATAAATTTGCTTTGCCATCGCGTCGTCGGGATCGTGTACCGGAGTCACCTAGTGCAG” it was 3960 fluorescence intensity (a.u.); in that of “ATTATTAGTAGATTAATTAATAAACCTCACTCAATCTGGCCGGAGTCACCTAGTGCAG”, 15200 fluorescence intensity (a.u.); in that of “TCAATCTATAATTTAAATTGTCATAAACCGTATCATCTAACGGAGTCACCTAGTGCAG”, 16200 fluorescence intensity (a.u.). On to “GCTGATATGACAGAATACACACCACCAGCTAAGCGGCACACGGAGTCACCTAGTGCAG”, for which the binding signal was 16400 fluorescence intensity (a.u.). On to “ACTATTTTCAGTTTAATTTATCCTTTTCGTTGCAACTTGTCGGAGTCACCTAGTGCAG”, for which the binding signal was 3550 fluorescence intensity (a.u.). In the case of “CAAATTAACTGAAGCGTGCAAAGTTTGGATCCGGCCGCGACGGAGTCACCTAGTGCAG” it was 12700 fluorescence intensity (a.u.). “GGCGCTTATCACGGCATTGATTAGCTAATCATCACTCCATCGGAGTCACCTAGTGCAG”: the binding signal was 35900 fluorescence intensity (a.u.). Under “AGTGCTAACTTAATCAATTCCCTTAAGTTTCCTATTGAAGCGGAGTCACCTAGTGCAG” stands 5290 fluorescence intensity (a.u.); under “GAAAATTTCTTCCCCAATTAAGCCGCGCAAATTATACCGACGGAGTCACCTAGTGCAG”, 10600 fluorescence intensity (a.u.). In the case of “CTTTGATTACATCAAGCCACTGAATTATCAGTTATAATCTCGGAGTCACCTAGTGCAG” it was 23100 fluorescence intensity (a.u.); in that of “GTGGATTGGACAATTTGGACAAGATAACCCTTCTCTCTCTCGGAGTCACCTAGTGCAG”, 25700 fluorescence intensity (a.u.); in that of “AATTTCTTGTTCAATCATTTCATATATATATACATGTAGGCGGAGTCACCTAGTGCAG”, 6120 fluorescence intensity (a.u.).

Consider “ATATTAATTACATATGTAAGTGGCGTGTAAGTAGAATGTACGGAGTCACCTAGTGCAG”, for which the binding signal was 13800 fluorescence intensity (a.u.).

As for “GACACTAATTTAGGGTATTAAACGTAGACTACTTAGAACACGGAGTCACCTAGTGCAG”, the binding signal is 10800 fluorescence intensity (a.u.). Turning to “ATGAATAATTGAGGAAAACAAAGCGACCATGCGATGTAATCGGAGTCACCTAGTGCAG”, the binding signal was 23200 fluorescence intensity (a.u.). Under “CACCCCTTCTAATTATTTGATATTAAGTTATTTCCTAGTACGGAGTCACCTAGTGCAG” stands 4390 fluorescence intensity (a.u.). For “ATGATGAAATCATTGAAAACGCGGAGGCAAGAGGACGTGCCGGAGTCACCTAGTGCAG”, the binding signal was 4180 fluorescence intensity (a.u.). “GTTTAAATGTGATGATTGTTAGTGGATGATGATGTGGCATCGGAGTCACCTAGTGCAG”: the binding signal is 26100 fluorescence intensity (a.u.). In the case of “AGGCAAAATTTATCATCCTATCAGATAGCTCTCAGGCACCCGGAGTCACCTAGTGCAG” it was 4200 fluorescence intensity (a.u.); in that of “TATGTTAAATTTACTCAAATTTATAGAAAATTTAGCAATACGGAGTCACCTAGTGCAG”, 12000 fluorescence intensity (a.u.).

For “GATAGATAGATAGATAGATAGATAGATTTGTTGGCTGTGTCGGAGTCACCTAGTGCAG”, the binding signal is 63500 fluorescence intensity (a.u.). Take “CCAAACTGAACAGAAAACAGAATCCGTACATCCCAGCTCACGGAGTCACCTAGTGCAG”: the binding signal was 6880 fluorescence intensity (a.u.). As for “ATCTGATGGAATCAAGAAGGCCAACGTTGGTGTGGGCCGGCGGAGTCACCTAGTGCAG”, the binding signal was 5560 fluorescence intensity (a.u.).

Turning to “CACTACTCATTCAATCACAACCCTTCACCGTTTACTTCTACGGAGTCACCTAGTGCAG”, the binding signal was 13100 fluorescence intensity (a.u.). In the case of “ATAATAATAAACGAAATAATTATTACTCACTCCTTCCAATCGGAGTCACCTAGTGCAG” it was 10500 fluorescence intensity (a.u.); in that of “AGGTAATTGTAGGGCCATATTGAACAGCACTGCATACACGCGGAGTCACCTAGTGCAG”, 12100 fluorescence intensity (a.u.); in that of “AACACCAATCACCACGTACGCCGACCAACCCCATCCACCCCGGAGTCACCTAGTGCAG”, 14200 fluorescence intensity (a.u.). Under “GTGGCTTGATTTAACACTAAAAGTTATTTAAGCATCATATCGGAGTCACCTAGTGCAG” stands 6040 fluorescence intensity (a.u.); under “GAACTAAACAAAGCATATGATTTGAGAGCATACCAGTCTGCGGAGTCACCTAGTGCAG”, 3230 fluorescence intensity (a.u.); under “TCGCCTGATTGCTCTTGACGTCTTGCAATGATGGCGCGCTCGGAGTCACCTAGTGCAG”, 47800 fluorescence intensity (a.u.).

Take “CTGACAGATCTAAACACATGCCCTGTTTAGATCACACATACGGAGTCACCTAGTGCAG”: the binding signal is 6900 fluorescence intensity (a.u.).

Take “CCTGATGACGCTTTATGATGCTTATTTGTCTTCGCTGATGCGGAGTCACCTAGTGCAG”: the binding signal was 8290 fluorescence intensity (a.u.).

Turning to “GCCCGTTCAAGAACTGATAATTGAATCTCTGATTGTCTGTCGGAGTCACCTAGTGCAG”, the binding signal was 11800 fluorescence intensity (a.u.).

As for “ATATTCAAATTTTGATTTATGAAATTTGTTCAGAATTTACCGGAGTCACCTAGTGCAG”, the binding signal is 4110 fluorescence intensity (a.u.). Under “CAAGATTAACGGACGTACGGCTCCGACTCCGAGAGGCGAGCGGAGTCACCTAGTGCAG” stands 3710 fluorescence intensity (a.u.). In the case of “AGCCTAATTATCCATTATTAGCACATGTGGGTTATTGTAGCGGAGTCACCTAGTGCAG” it was 36300 fluorescence intensity (a.u.); in that of “GAGATCGAAATTTTCGGTTAGACTGAATGCCCACCCCTACCGGAGTCACCTAGTGCAG”, 3860 fluorescence intensity (a.u.); in that of “CAGTTAGAACTGTCAATCTCATCAGGAAATTACCCAGGAACGGAGTCACCTAGTGCAG”, 7500 fluorescence intensity (a.u.). “GAAATTGAAATGTAGATATTATATTCGTCCTTCGCAACCTCGGAGTCACCTAGTGCAG”: the binding signal was 18600 fluorescence intensity (a.u.). In the case of “ACTGACAGACAGGTAACCATACTCTGTTTTCCCCTGTTCTCGGAGTCACCTAGTGCAG” it was 28100 fluorescence intensity (a.u.). For “GTGGGTTGAGATGATTGTTAGTAACAAAAGTTTAGTAAGACGGAGTCACCTAGTGCAG”, the binding signal was 12600 fluorescence intensity (a.u.).
